To fix the notation:
B1: PhoQ; a variant is named by its letters at X, in order, P23837 (parent)
chain: MKKLLRLFFPLSLRVRFLLATAAVVLVLSLAYGMVALIGYSVSFDKTTFRLLRGESNLFYTLAKWENNKLHVELPENIDKQSPTMTLIYDENGQLLWAQRDVPWLMKMIQPDWLKSNGFHEIEADVNDTSLLLSGDHSIQQQLQEVREDDDDAEMTHSVAVNVYPATSRMPKLTIVVVDTIPVELKSSYMVWSWFIYVLSANLLLVIPLLWVAAWWSLRPIEALAKEVRELEEHNRELLNPATTRELTSLVRNLNRLLKSERERYDKYRTTLTDLTHSLKTPLXXLQXXLRSLRSEKMSVSDAEPVMLEQISRISQQIGYYLHRASMRGGTLLSRELHPVAPLLDNLTSALNKVYQRKGVNISLDISPEISFVGEQNDFVEVMGNVLDNACKYCLEFVEISARQTDEHLYIVVEDDGPGIPLSKREVIFDRGQRVDTLRPGQGVGLAVAREITEQYEGKIVAGESMLGGARMEVIFGRQHSAPKDE

The text below walks through data of a collection of fitness landscapes (doi:10.1126/science.1257360).

The other results are listed elsewhere or left out.

The variants in the test derive from B1. Briefly: enrichment ratio after two sorts for PhoP signalling (ratio (wild type AVST 3.29)); higher = more functional. Conditions: with PhoP (E. coli).
Regarding DARL, the enrichment ratio was at most 0.25. Turning to ILWS, the enrichment ratio is at most 0.25. On to WPRS, for which the enrichment ratio is at most 0.25. With IIKN, the enrichment ratio was at most 0.25. On to HHSE, for which the enrichment ratio is at most 0.25. The same measure for QVSP: at most 0.25.

As for HSIK, the enrichment ratio is at most 0.25.

As to MPYC, the enrichment ratio is at most 0.25.

As to DICA, the enrichment ratio is at most 0.25. Consider IGKP, for which the enrichment ratio is at most 0.25. Take WTVF: the enrichment ratio was at most 0.25. For the variant WSFM, the enrichment ratio was at most 0.25. As to SAVE, the enrichment ratio was at most 0.25. With MMWF the figure was at most 0.25; with NIHQ, at most 0.25. Take INGQ: the enrichment ratio is at most 0.25. In the case of RVQP, the enrichment ratio was at most 0.25. Consider TDYK, for which the enrichment ratio was at most 0.25. Regarding IRIM, the enrichment ratio was at most 0.25. TSDA: the enrichment ratio is at most 0.25.

On to EHRW, for which the enrichment ratio was at most 0.25. With DTYQ, the enrichment ratio was at most 0.25. With FEEW, the enrichment ratio is at most 0.25. Turning to EDTL, the enrichment ratio was at most 0.25. With LLKW the figure was at most 0.25. With SACK the figure was 0.562.

In the case of KCAW, the enrichment ratio is at most 0.25.

TRSR: the enrichment ratio was at most 0.25. As for RVHW, the enrichment ratio is at most 0.25.

Consider WKSQ, for which the enrichment ratio is at most 0.25. Regarding DAPG, the enrichment ratio is at most 0.25. As for CTFF, the enrichment ratio was at most 0.25. RAMY: the enrichment ratio is at most 0.25. On to IQLE, for which the enrichment ratio is at most 0.25. Regarding AVAH, the enrichment ratio was found to be 13.4. Turning to FCPS, the enrichment ratio was at most 0.25. WVKQ: the enrichment ratio was 1.79.

Take SLKD: the enrichment ratio is at most 0.25. With PLKP, the enrichment ratio is at most 0.25.

Regarding QFDT, the enrichment ratio was at most 0.25. With WQSH the figure was at most 0.25.

With QNFP, the enrichment ratio was at most 0.25. HQWG: the enrichment ratio is at most 0.25.

Take DWQG: the enrichment ratio was at most 0.25. In the case of GMDW, the enrichment ratio was at most 0.25.

In the case of ACPD, the enrichment ratio is at most 0.25. With QDKQ, the enrichment ratio was at most 0.25. The same measure for NCPK: at most 0.25; for YQQP: at most 0.25.

In the case of RPHG, the enrichment ratio was at most 0.25. Turning to TTPM, the enrichment ratio is at most 0.25. On to MYPI, for which the enrichment ratio is at most 0.25. Turning to NEMM, the enrichment ratio was at most 0.25.

For DPLV, the enrichment ratio was at most 0.25.

In the case of FWVG, the enrichment ratio was at most 0.25. Regarding FGYL, the enrichment ratio was at most 0.25.

On to NYCP, for which the enrichment ratio is at most 0.25.

For the variant TIDS, the enrichment ratio was at most 0.25. As to ALHP, the enrichment ratio was at most 0.25. Take YHND: the enrichment ratio was at most 0.25. With YYEK the figure was at most 0.25; with PGSG, at most 0.25; with TLAL, 8.99. In the case of FTLA, the enrichment ratio was found to be 4.58. Take GKHP: the enrichment ratio was at most 0.25.

AIIH: the enrichment ratio turned out to be 2.68. Consider MSLV, for which the enrichment ratio stood at 14.7. With VALM the figure was 16.8; with HRCD, at most 0.25; with PIWK, at most 0.25. The same measure for NHIY: at most 0.25; for WHTG: at most 0.25; for YAID: at most 0.25. As for YIPG, the enrichment ratio is at most 0.25.

With HRRS, the enrichment ratio is at most 0.25. With YWGY, the enrichment ratio is at most 0.25.

Regarding SQTE, the enrichment ratio came to 26.5. Take TSQS: the enrichment ratio was determined as 6.53. GRVN: the enrichment ratio is at most 0.25. As to PIFD, the enrichment ratio is at most 0.25. As to PVCK, the enrichment ratio is at most 0.25. For IEEG, the enrichment ratio is at most 0.25. The same measure for LSHK: at most 0.25; for MLCQ: at most 0.25; for DDNI: at most 0.25. With DPHS the figure was at most 0.25. The same measure for ADDD: at most 0.25; for IDHE: at most 0.25. With LKYI, the enrichment ratio was at most 0.25. With APTC, the enrichment ratio is at most 0.25. On to KMVN, for which the enrichment ratio is at most 0.25.

As to PYLD, the enrichment ratio is at most 0.25. For the variant GPRE, the enrichment ratio was at most 0.25. In the case of RLRM, the enrichment ratio was at most 0.25. SDKK: the enrichment ratio is at most 0.25.

Turning to CYLI, the enrichment ratio is at most 0.25. Consider FNMC, for which the enrichment ratio worked out at 0.593. Take HYPQ: the enrichment ratio is at most 0.25. Consider VWIP, for which the enrichment ratio was at most 0.25. The same measure for YTCR: at most 0.25; for DRQA: at most 0.25; for TCKI: at most 0.25. On to PTYG, for which the enrichment ratio is at most 0.25. With WKEK the figure was at most 0.25; with KRWV, at most 0.25. Consider PHYS, for which the enrichment ratio is at most 0.25. In the case of SAKM, the enrichment ratio was at most 0.25. YNKW: the enrichment ratio was at most 0.25. As to AVIW, the enrichment ratio is at most 0.25. With VFNN the figure was at most 0.25.

For the variant PKWV, the enrichment ratio is at most 0.25. On to TLAC, for which the enrichment ratio was determined as 9.06. Consider PIRH, for which the enrichment ratio is at most 0.25.

Consider NYSG, for which the enrichment ratio is at most 0.25. Consider EEIG, for which the enrichment ratio was at most 0.25. Take YPKF: the enrichment ratio is at most 0.25. With PLFY the figure was at most 0.25. On to SKVY, for which the enrichment ratio came to 4.33. In the case of SGSK, the enrichment ratio was at most 0.25. On to LDWN, for which the enrichment ratio is at most 0.25. LKWV: the enrichment ratio is at most 0.25.

With YEAS, the enrichment ratio was at most 0.25.

Turning to DFKK, the enrichment ratio is at most 0.25. The same measure for THCD: at most 0.25; for FHHN: at most 0.25. Take ELLI: the enrichment ratio is at most 0.25. For RAYQ, the enrichment ratio was at most 0.25. For the variant TPWA, the enrichment ratio is at most 0.25. On to RIFY, for which the enrichment ratio was at most 0.25. Consider NSHM, for which the enrichment ratio was at most 0.25.

For the variant QRMC, the enrichment ratio was at most 0.25. For KGHA, the enrichment ratio was at most 0.25. Take RMEG: the enrichment ratio was at most 0.25.

In the case of VCFS, the enrichment ratio is at most 0.25. On to KALN, for which the enrichment ratio is at most 0.25. For the variant GAQP, the enrichment ratio was at most 0.25. On to WFGQ, for which the enrichment ratio was at most 0.25. As for IRMF, the enrichment ratio was at most 0.25.

As to YAFW, the enrichment ratio was at most 0.25. With GPLF the figure was at most 0.25; with YHDL, at most 0.25; with PMCI, at most 0.25. For WEYI, the enrichment ratio is at most 0.25. Take NHTY: the enrichment ratio was at most 0.25. With TMLF, the enrichment ratio was at most 0.25.

DQEF: the enrichment ratio is at most 0.25. As to FERN, the enrichment ratio was at most 0.25. With QTHQ the figure was 0.76.

As to PQDP, the enrichment ratio is at most 0.25. Turning to WSIC, the enrichment ratio was at most 0.25. On to FPQV, for which the enrichment ratio is at most 0.25. Regarding NTEG, the enrichment ratio is at most 0.25. For the variant DFQK, the enrichment ratio was at most 0.25.
